This is one part of the list. Sequences were assembled here from the parent chain. Inactive controls read about 0.05.
B1: TEV protease; numbered along this chain (parent)
chain: MGESLFKGPRDYNPISSSICHLTNESDGHTTSLYGIGFGPFIITNKHLFRRNNGTLVVQSLHGVFKVKDTTTLQQHLVDGRDMIIIRMPKDFPPFPQKLKFREPQREERICLVTTNFQTKSMSSMVSDTSCTFPSGDGIFWKHWIQTKDGQCGSPLVSTRDGFIVGIHSASNFTNTNNYFTSVPKNFMELLTNQEAQQWVSGWRLNADSVLWGGHKVFMVKPEEPFQPVKEATQL

Variants of: B1
Experiment: raw area under fraction-flipped curve 0-4 h after induction (AUC4h, not background-subtracted), DNA-recorder readout of cleavage of the substrate (dimensionless); higher = more cleavage of the substrate by the protease variant
Settings: temperature: 34 °C; time window: 0-4 h after rhamnose induction
Method: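 In vivo DNA recorder in E. coli TOP10(DE3) ΔrhaA at 34 °C. Each TEVp single-site mutant (parent TEVp 0) is paired with a single-site variant of the 7-mer TEVs (canonical ENLYFQ|S). The substrate sits between flexible linkers in a Bxb1-sfGFP-TEVs-SsrA fusion, so cleavage stabilises Bxb1 and speeds flipping of a recombination array, read by NGS. The value is the raw area under the fraction-flipped curve over 0-4 h after rhamnose induction (AUC4h), with ≥20 reads per time point. It is not background-subtracted; inactive controls average about 0.047.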
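Further: Bxb1 expression induced with 0.2% (w/v) L-rhamnose at OD600 near 0.5, cultures sampled hourly, flipped fraction per protease–substrate barcode pair counted by paired-end Illumina sequencing.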

| Variant | area with substrate EALYFQS | area with substrate ECLYFQS | area with substrate EDLYFQS | area with substrate EELYFQS | area with substrate EFLYFQS | area with substrate EGLYFQS | area with substrate EHLYFQS | area with substrate EILYFQS | area with substrate EKLYFQS | area with substrate EMLYFQS | area with substrate EQLYFQS | area with substrate ERLYFQS | area with substrate ESLYFQS | area with substrate ETLYFQS | area with substrate EVLYFQS | area with substrate EWLYFQS | area with substrate EYLYFQS | area with substrate ELLYFQS | area with substrate EPLYFQS |
| --- | --- | --- | --- | --- | --- | --- | --- | --- | --- | --- | --- | --- | --- | --- | --- | --- | --- | --- | --- |
| MGESLFKGPRDYNPISSSICHLTNESDGHTTSLYGIGFGPFIITNKHLFRRNNGTLVVQSLHGVFKVKDTTTLQQHLVDGRDMIIIRMPKDFPPFPQKLKFREPQREERICLVTTNFQTKSMSSMVSDTSCTFPSGDGIFWKHWIQTKDGQCGSPNVSTRDGFIVGIHSASNFTNTNNYFTSVPKNFMELLTNQEAQQWVSGWRLNADSVLWGGHKVFMVKPEEPFQPVKEATQL [L156N] | 0.0564 | 0.0573 | 0.0583 | 0.0498 | 0.0461 | 0.0781 | 0.0646 | 0.044 | 0.0392 | 0.0616 | 0.0648 | 0.0538 | 0.0534 | 0.0497 | 0.0484 | 0.0496 | 0.0497 | – | – |
| MGESLFKGPRDYNPISSSICHLTNESDGHTTSLYGIGFGPFIITNKHLFRRNNGTLVVQSLHGVFKVKDTTTLQQHLVDGRDMIIIRMPKDFPPFPQKLKFREPQREERICLVTTNFQTKSMSSMVSDTSCTFPSGDGIFWKHWIQTKDGQCGSPLVSTMDGFIVGIHSASNFTNTNNYFTSVPKNFMELLTNQEAQQWVSGWRLNADSVLWGGHKVFMVKPEEPFQPVKEATQL [R160M] | 0.108 | 0.0912 | – | – | – | 0.0951 | – | – | 0.109 | – | – | – | – | – | – | – | – | – | – |
| MGESLFKGPRDYNPISSSICHLTNESDGHTTSLYGIGFGPFIITNKHLFRRNNGTLVVQSLHGVFKVKDTTTLQQHLVDGRDMIIIRMPKDFPPFPQKLKFREPQREERICLVTTNFQTKSMSSMVSDTSCTFPSGDGIFWKHWIQTKDGQCGSPLVSTFDGFIVGIHSASNFTNTNNYFTSVPKNFMELLTNQEAQQWVSGWRLNADSVLWGGHKVFMVKPEEPFQPVKEATQL [R160F] | 0.152 | 0.122 | 0.143 | 0.101 | – | – | 0.144 | 0.0828 | – | 0.0932 | 0.134 | 0.146 | 0.111 | – | 0.108 | 0.139 | 0.0952 | 0.151 | 0.142 |
| MGESLFKGPRDYNPISSSICHLTNESDGHTTSLYGIGFGPFIITNKHLFRRNNGTLVVQSLHGVFKVKDTTTLQQHLVDGRDMIIIRMPKDFPPFPQKLKFREPQREERICLVTTNFQTKSMSSMVSDTSCTFPSGDGIFWKHWIQTKDGQCGSPLVSTQDGFIVGIHSASNFTNTNNYFTSVPKNFMELLTNQEAQQWVSGWRLNADSVLWGGHKVFMVKPEEPFQPVKEATQL [R160Q] | 0.127 | 0.151 | 0.112 | – | – | 0.103 | – | 0.0958 | 0.128 | – | 0.144 | – | 0.0915 | 0.101 | 0.109 | 0.112 | – | 0.0678 | 0.133 |
| MGESLFKGPRDYNPISSSICHLTNESDGHTTSLYGIGFGPFIITNKHLFRRNNGTLVVQSLHGVFKVKDTTTLQQHLVDGRDMIIIRMPKDFPPFPQKLKFREPQREERICLVTTNFQTKSMSSMVSDTSCTFPSGDGIFWKHWIQTKDGQCGSPLVSTRDGFIVCIHSASNFTNTNNYFTSVPKNFMELLTNQEAQQWVSGWRLNADSVLWGGHKVFMVKPEEPFQPVKEATQL [G166C] | 0.0456 | 0.0602 | – | 0.0479 | – | – | 0.0497 | 0.0718 | 0.0447 | 0.0501 | 0.0367 | 0.0615 | 0.0534 | – | 0.0465 | 0.058 | 0.0568 | 0.0398 | – |
| MGESLFKGPRDYNPISSSICHLTNESDGHTTSLYGIGFGPFIITNKHLFRRNNGTLVVQSLHGVFKVKDTTTLQQHLVDGRDMIIIRMPKDFPPFPQKLKFREPQREERICLVTTNFQTKSMSSMVSDTSCTFPSGDGIFWKHWIQTKDCQCGSPLVSTRDGFIVGIHSASNFTNTNNYFTSVPKNFMELLTNQEAQQWVSGWRLNADSVLWGGHKVFMVKPEEPFQPVKEATQL [G150C] | 0.0643 | 0.0541 | 0.054 | 0.0558 | 0.0646 | 0.0539 | 0.0593 | 0.0618 | 0.0632 | 0.0628 | 0.0602 | 0.0666 | 0.0563 | 0.065 | 0.0588 | 0.0698 | 0.0323 | 0.0494 | – |
| MGESLFKGPRDYNPISSSICHLTNESDGHTTSLYGIGFGPFIITNKHLFRRNNGTLVVQSLHGVFKVKDTTTLQQHLVDGRDMIIIRMPKDFPPFPQKLKFREPQREERICLVTTNFQTKSMSSMVSDTSCTFPSGDGIFWKHWIQTKDNQCGSPLVSTRDGFIVGIHSASNFTNTNNYFTSVPKNFMELLTNQEAQQWVSGWRLNADSVLWGGHKVFMVKPEEPFQPVKEATQL [G150N] | 0.0612 | 0.0546 | 0.0688 | 0.063 | 0.0573 | 0.0562 | 0.0639 | 0.0413 | 0.056 | 0.0495 | – | 0.0544 | 0.0467 | – | 0.0647 | 0.0597 | – | 0.0304 | 0.0576 |
| MGESLFKGPRDYNPISSSICHLTNESDGHTTSLYGIGFGPFIITNKHLFRRNNGTLVVQSLHGVFKVKDTTTLQQHLVDGRDMIIIRMPKDFPPFPQKLKFREPQREERICLVTTNFQTKSMSSMVSDTSCTFPSGDGIFWKHWIQTKDTQCGSPLVSTRDGFIVGIHSASNFTNTNNYFTSVPKNFMELLTNQEAQQWVSGWRLNADSVLWGGHKVFMVKPEEPFQPVKEATQL [G150T] | 0.0566 | 0.0515 | 0.0589 | 0.053 | 0.0555 | 0.0569 | 0.0585 | 0.0525 | 0.0576 | 0.0495 | 0.0546 | 0.0475 | 0.0572 | 0.0405 | 0.055 | 0.065 | – | 0.0676 | 0.0596 |
